Data on seven compounds can be found in US11932625B2, “Inhibitors of cyclin-dependent kinase 12 (CDK12) and uses thereof” (Dana-Farber Cancer Institute, Inc., priority 2016, dated 2024).

Like-named read-outs stand apart in the source and are kept apart here.

In one test the target is T1, CDK2/cyclin A (Homo sapiens, UniProt P24941).
T1 construct: purchased Life Technologies (Invitrogen)
As to the kind of experiment: Invitrogen/Life Technologies biochemical kinase inhibition assay. The method, then:
(§1) Select compounds described herein were evaluated for structure-activity analyses. Exemplary results of the IC50 values of exemplary compound BSJ-01-175-1 on other CDK kinases from an Invitrogen biochemical assay are shown in Table 1. In vitro kinase assays were performed by Life Technologies in duplicate at an ATP concentration=Km for each kinase. The IC50 on Jurkat cell is from an anti-proliferaction assay; IC50 on CDK2, CDK7 and CDK9 is from a biochemical kinase inhibition assay from Life technology.

The next test addresses T2, CDK7/cyclin H/MNAT1 (Homo sapiens, UniProt P50613).
T2 construct: purchased Life Technologies (Invitrogen)
The description is as above. On the procedure:
as §1

The next test has as its target T3, CDK9/cyclin T1 (Homo sapiens, UniProt P50750).
T3 construct: purchased Life Technologies (Invitrogen)
The test is described as above. On the procedure:
as §1

Another test relates to Jurkat cells. The test can be described thus: Anti-proliferation activity on Jurkat cells ([…] GLO). Format: cell-based. The note with it: Homo sapiens, 72 hours, read-out: IC50 (nM) Jurkat Cell. The method, then: as §1
Assay of Anti-Proliferation Activity on Jurkat Cells
Jurkat cells were plated at 30,000 cells/well and treated with a titration of compounds indicated. Cells were allowed to grow for 72 hours. Cells were assayed using […] GLO (Promega) to determine cell viability by measuring the amount of ATP present, which is an indicator of cell metabolic activity. Results are graphedcalculated as relative as luminescence as compared to DMSOP=.cent values. Curves were generated using PRISM and an IC50 value was determined.

Another test relates to HAP1 WT cells. The test can be described thus: Anti-proliferative activity, HAP1 WT cells (CellTiter-Glo). The note with it: Homo sapiens, 72 hrs. Type of test: cell-based. On the procedure: (§2) Select compounds described herein were evaluated for anti-proliferative activity. HAP1 WT and CDK12 C1039S/CDK13 C1017S double mutants cells were seeded at a density of 12,000 cells/well in 96-well plates. Twenty-four hours later cells were then treated with compound BSJ-01-175-1 in a 10-pt dose escalation format from 1 nM to 10 μM or DMSO control for 72 hrs. After 72 hrs, cells were assayed using CellTiter-Glo Luminescent Cell Viability Assay (Promega) to determine cell viability by measuring the amount of ATP present in each sample cell population, which is an indicator of cell metabolic activity. Results are graphed as fraction of the DMSO control at 72 hrs. All data points were performed in biological triplicate.
Background: In ATP-based viability assays light output follows the ATP content of the culture.

Test [1] relates to HAP1 CDK12 C1039S/CDK13 C1017S double mutants cells. As to the kind of experiment: Anti-proliferative activity, HAP1 CDK12 C1039S/CDK13 C1017S double mutant cells (CellTiter-Glo). Format: cell-based. The note with it: Homo sapiens, HAP1; CDK12 C1039S/CDK13 C1017S double mutant, 72 hrs, CellTiter-Glo; read-out: HAP1 CDK12/13 mutant (IC50). On the procedure: as §2
Where [2] appears, read: ATP concentration = Km, duplicate, read-out: IC50 (nM) CDK2/Cyclin A.
The mark [3] stands for this setting: ATP concentration = Km, duplicate, read-out: IC50 (nM) CDK7/cyclin H/MNAT1.
Where [4] appears, read: ATP concentration = Km, duplicate, read-out: IC50 (nM) CDK9/Cyclin T1.

T2 sequence (P50613 whole entry): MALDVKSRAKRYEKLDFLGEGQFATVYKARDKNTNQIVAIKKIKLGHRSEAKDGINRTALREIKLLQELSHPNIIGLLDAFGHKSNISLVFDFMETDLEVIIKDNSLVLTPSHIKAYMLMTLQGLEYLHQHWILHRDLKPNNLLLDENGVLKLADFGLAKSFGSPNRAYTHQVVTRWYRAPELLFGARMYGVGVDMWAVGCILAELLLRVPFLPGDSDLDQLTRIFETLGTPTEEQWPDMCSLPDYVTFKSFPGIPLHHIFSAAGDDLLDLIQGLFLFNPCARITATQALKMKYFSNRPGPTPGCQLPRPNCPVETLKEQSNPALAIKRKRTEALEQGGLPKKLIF
T2 sequence (P51946 whole entry partner): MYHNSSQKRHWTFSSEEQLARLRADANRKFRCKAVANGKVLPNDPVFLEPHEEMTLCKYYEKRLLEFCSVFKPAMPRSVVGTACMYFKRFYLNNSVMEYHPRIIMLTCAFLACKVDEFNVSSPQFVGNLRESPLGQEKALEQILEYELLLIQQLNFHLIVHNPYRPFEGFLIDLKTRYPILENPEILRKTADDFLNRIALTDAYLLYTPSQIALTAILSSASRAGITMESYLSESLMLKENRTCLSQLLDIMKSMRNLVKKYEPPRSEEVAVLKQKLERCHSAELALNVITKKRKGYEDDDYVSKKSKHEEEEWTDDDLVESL
T2 sequence (P51948 whole entry partner): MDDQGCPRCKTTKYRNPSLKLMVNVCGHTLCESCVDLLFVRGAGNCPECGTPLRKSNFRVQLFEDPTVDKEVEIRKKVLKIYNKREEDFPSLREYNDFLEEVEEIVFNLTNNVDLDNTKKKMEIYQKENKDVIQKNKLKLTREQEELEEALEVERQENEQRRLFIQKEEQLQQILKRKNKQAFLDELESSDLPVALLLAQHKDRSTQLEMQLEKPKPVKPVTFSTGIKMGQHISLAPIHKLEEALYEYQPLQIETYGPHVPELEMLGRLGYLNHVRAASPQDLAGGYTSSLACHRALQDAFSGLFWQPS
T3 sequence (P50750 whole entry): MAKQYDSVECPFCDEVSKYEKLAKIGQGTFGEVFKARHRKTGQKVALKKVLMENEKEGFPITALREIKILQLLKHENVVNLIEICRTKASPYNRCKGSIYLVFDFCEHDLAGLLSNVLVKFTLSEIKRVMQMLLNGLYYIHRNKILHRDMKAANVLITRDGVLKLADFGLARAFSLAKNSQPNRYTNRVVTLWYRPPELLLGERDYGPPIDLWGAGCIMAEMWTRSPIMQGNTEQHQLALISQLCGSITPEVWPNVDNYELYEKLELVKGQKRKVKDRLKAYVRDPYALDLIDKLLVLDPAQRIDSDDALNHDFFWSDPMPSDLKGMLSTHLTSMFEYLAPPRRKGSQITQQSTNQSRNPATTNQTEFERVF
T3 sequence (O60563 whole entry partner): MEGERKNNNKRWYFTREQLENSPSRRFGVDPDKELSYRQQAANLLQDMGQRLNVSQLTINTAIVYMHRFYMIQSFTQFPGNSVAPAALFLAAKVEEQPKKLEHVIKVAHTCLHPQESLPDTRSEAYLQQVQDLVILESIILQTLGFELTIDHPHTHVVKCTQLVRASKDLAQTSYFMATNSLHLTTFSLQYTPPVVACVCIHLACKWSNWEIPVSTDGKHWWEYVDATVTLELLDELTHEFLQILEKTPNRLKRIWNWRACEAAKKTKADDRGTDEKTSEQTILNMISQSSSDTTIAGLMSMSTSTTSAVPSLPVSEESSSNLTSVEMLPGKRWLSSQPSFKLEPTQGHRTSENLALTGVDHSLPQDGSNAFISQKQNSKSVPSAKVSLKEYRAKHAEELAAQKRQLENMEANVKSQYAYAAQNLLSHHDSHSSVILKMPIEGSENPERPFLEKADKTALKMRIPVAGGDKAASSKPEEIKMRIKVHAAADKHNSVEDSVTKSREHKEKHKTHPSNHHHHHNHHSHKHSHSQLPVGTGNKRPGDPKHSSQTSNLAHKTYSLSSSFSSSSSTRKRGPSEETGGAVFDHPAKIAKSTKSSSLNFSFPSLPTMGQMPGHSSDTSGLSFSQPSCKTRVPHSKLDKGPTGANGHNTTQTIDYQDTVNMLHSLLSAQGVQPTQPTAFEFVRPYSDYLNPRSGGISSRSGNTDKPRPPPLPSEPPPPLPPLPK

For the compound `C=CC(=O)Nc1ccc(N2CCC[C@@H](Nc3ncc(Cl)c(-c4c[nH]c5ccccc45)n3)C2)cc1` [BSJ-02-139, (R)—N-(4-(3-((5-chloro-4-(1H-indol-3-yl)pyrimidin-2-yl)amino)piperidin-1-yl)phenyl)acrylamide], the results for the IC50 on CDK2/cyclin A (setting [2]), at CDK7/cyclin H/MNAT1 (setting [3]) and on CDK9/cyclin T1 (setting [4]) were 3550 nM, 162 nM and 171 nM, respectively.

In the case of `C=CC(=O)Nc1cc(OC)c(N2CCC[C@@H](Nc3ncc(Cl)c(-c4c[nH]c5ccccc45)n3)C2)cc1C` [BSJ-03-014, (R)—N-(4-(3-((5-chloro-4-(1H-indol-3-yl)pyrimidin-2-yl)amino)piperidin-1-yl)-5-methoxy-2-methylphenyl)acrylamide], the IC50 in the test with Jurkat cells came out at 344 nM; on CDK2/cyclin A (setting [2]), 3360 nM; at CDK7/cyclin H/MNAT1 (setting [3]), 403 nM; on CDK9/cyclin T1 (setting [4]) it was 522 nM.

Turning to `C=CC(=O)Nc1cc(F)c(N2CCC[C@@H](Nc3ncc(Cl)c(-c4c[nH]c5ccccc45)n3)C2)cc1C` [BSJ-03-005, (R)—N-(4-(3-((5-chloro-4-(1H-indol-3-yl)pyrimidin-2-yl)amino)piperidin-1-yl)-5-fluoro-2-methylphenyl)acrylamide], the IC50 with Jurkat cells amounted to 132 nM; at CDK2/cyclin A (setting [2]), 266 nM; at CDK7/cyclin H/MNAT1 (setting [3]) it was 118 nM; on CDK9/cyclin T1 (setting [4]), 230 nM.

For the compound `C=CC(=O)Nc1ccc(O[C@@H]2CCC[C@@H](Nc3ncc(Cl)c(-c4c[nH]c5ccccc45)n3)C2)c(F)c1` [BSJ-03-161, N-(4-(((1R,3R)-3-((5-chloro-4-(1H-indol-3-yl)pyrimidin-2-yl)amino)cyclohexyl)oxy)-3-fluorophenyl)acrylamide], the IC50 is 62.2 nM in the test with Jurkat cells, above 10000 nM on CDK2/cyclin A (setting [2]), 878 nM on CDK7/cyclin H/MNAT1 (setting [3]) and 786 nM on CDK9/cyclin T1 (setting [4]).

Take `CN(C)C/C=C/C(=O)Nc1ccc(O[C@@H]2CCC[C@@H](Nc3ncc(Cl)c(-c4c[nH]c5ccccc45)n3)C2)cc1` [BSJ-01-175, (E)-N-(4-((1R,3R)-3-(5-chloro-4-(1H-indol-3-yl)pyrimidin-2-ylamino)cyclohexyloxy)phenyl)-4-(dimethylamino)but-2-enamide]: the IC50 in the test with Jurkat cells came to 161 nM; on CDK2/cyclin A (setting [2]), 4510 nM; on CDK2/cyclin A ([ATP] Tested Km app (Table 1), read-out: Invitrogen Technology: IC50 (nM), CDK2/cyclin A), 4510 nM; at CDK7/cyclin H/MNAT1 (setting [3]), 121 nM; at CDK7/cyclin H/MNAT1 ([ATP] Tested Km app (Table 1), read-out: Invitrogen Technology: IC50 (nM), CDK7/cyclin H/MNAT1) it was 121 nM; on CDK9/cyclin T1 (setting [4]), 367 nM. The IC50 was 367 nM at CDK9/cyclin T1 ([ATP] Tested Km app (Table 1), read-out: Invitrogen Technology: IC50 (nM), CDK9/cyclin T1); 313 nM in the test with HAP1 WT cells; 670 nM in test [1].

With `C=CC(=O)Nc1ccc(O[C@@H]2CCC[C@@H](Nc3ncc(Cl)c(-c4c[nH]c5ccccc45)n3)C2)cc1` [BSJ-01-033, N-(4-((1R,3R)-3-(5-chloro-4-(1H-indol-3-yl)pyrimidin-2-ylamino)cyclohexyloxy)phenyl)acrylamide], the IC50 with Jurkat cells was 140 nM; on CDK2/cyclin A (setting [2]) it was above 10000 nM; at CDK7/cyclin H/MNAT1 (setting [3]) it was 587 nM; on CDK9/cyclin T1 (setting [4]), 585 nM.

For the compound `CN(C)C/C=C/C(=O)Nc1ccc(O[C@@H]2CCC[C@@H](Nc3ncc(Cl)c(-c4c[nH]c5ccccc45)n3)C2)c(F)c1` [BSJ-03-162, (E)-N-(4-(((1R,3R)-3-((5-chloro-4-(1H-indol-3-yl)pyrimidin-2-yl)amino)cyclohexyl)oxy)-3-fluorophenyl)-4-(dimethylamino)but-2-enamide], the figures for the IC50 in the test on Jurkat cells, at CDK2/cyclin A (setting [2]) and at CDK9/cyclin T1 (setting [4]) were 154 nM, 3570 nM and 286 nM, respectively.
